Measured values: the supplement of paper PMC4166925
± gives the standard deviation of the averaged measurements. The full ranking holds about 33,000 sequences; the median of “E-score (dimensionless, -0.5 to 0.5)” is about -0.046, and the highest 2% start at about 0.36. Some of the results follow.

system: T1, SpTbr T-box DNA-binding domain (GST fusion); assay: PBM E-score of 8-mer (E-score (dimensionless, -0.5 to 0.5)); Tbr is Tbrain of the sea star Patiria miniata (Pm) or the sea urchin Strongylocentrotus purpuratus (Sp); higher = stronger binding preference; most listed sequences are background and not binding sites; details: the construct has about 5 more residues each side
T1 sequence: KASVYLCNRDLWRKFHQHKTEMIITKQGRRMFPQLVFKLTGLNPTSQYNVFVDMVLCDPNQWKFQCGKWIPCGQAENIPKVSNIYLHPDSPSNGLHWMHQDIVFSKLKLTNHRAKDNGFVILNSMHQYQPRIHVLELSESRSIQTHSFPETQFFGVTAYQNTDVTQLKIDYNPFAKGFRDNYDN
Summary of the method: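 Universal Agilent oligonucleotide arrays, made double-stranded by primer extension, were incubated with 200 nM GST-fused Tbr T-box DNA-binding domain in PBS (pH 7.5). The protein was expressed in BL21 E. coli at 20 °C and purified by glutathione affinity chromatography. After scanning and quantification, the Universal PBM Analysis Suite assigned an enrichment E-score to each ungapped 8-mer, averaged over duplicate arrays.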

Row | Sequence | PBM E-score of 8-mer
1 | AGACGACA | 0.00539 ± 0.033
2 | ACCATAAG | -0.182 ± 0.058
3 | ATATCTGA | -0.323 ± 0.0072
4 | GAGATTGA | -0.0704 ± 0.013
5 | CATTCCCA | 0.0508 ± 0.048
6 | ATGCCGCA | -0.00925 ± 0.053
7 | ACCTGGAA | 0.139 ± 0.053
8 | CAGACGTA | -0.103 ± 0.08
9 | GACCAAGA | -0.075 ± 0.058
10 | TTCACAAA | 0.207 ± 0.074
11 | CAGGGATA | -0.339 ± 0.027
12 | CCCAGCTA | -0.144 ± 0.013
13 | GCTCATCC | -0.141 ± 0.0052
14 | AAACCGCC | -0.0164 ± 0.032
15 | CGCACGTA | 0.145 ± 0.045
16 | ACGCCCCC | -0.0304 ± 0.011
17 | TTACCTAA | -0.0233 ± 0.055
18 | GAATATTA | 0.0503 ± 0.027
19 | GGGCGTAC | -0.171 ± 0.058
20 | ACCATTTA | -0.106 ± 0.038
21 | CTGCGGTA | -0.219 ± 0.026
22 | CCAATGCG | -0.014 ± 0.064

Row | Sequence | PBM E-score of 8-mer
23 | GTTGAAGA | 0.0103 ± 0.024
24 | AATTCATG | -0.0111 ± 0.14
25 | CCACAAGG | -0.0106 ± 0.06
26 | GCGGATCC | -0.0612 ± 0.051
27 | CCACTAGC | 0.109 ± 0.032
28 | CACCGATC | 0.154 ± 0.014
29 | CAATGCCC | -0.0949 ± 0.074
30 | AGGTGAAA | 0.266 ± 0.045
31 | ACTCACAA | 0.197 ± 0.0079
32 | GAACGCGC | 0.118 ± 0.082
33 | GCGACGAC | 0.199 ± 0.043
34 | AGAGTGGA | -0.0491 ± 0.061
35 | CCATAGAG | -0.191 ± 0.023
36 | GCCGTTCA | 0.0476 ± 0.01
37 | GAGACCTA | -0.0561 ± 0.012
38 | ACCACAAT | -0.0442 ± 0.058
39 | GCCGCCGC | -0.174 ± 0.02
40 | ATGCCGAC | 0.104 ± 0.056
41 | ATGGGGAC | -0.236 ± 0.057
42 | ACCTCTCA | 0.237 ± 0.018
43 | CTACTAAC | 0.193 ± 0.01
44 | AACGCCAC | 0.247 ± 0.019

Row | Sequence | PBM E-score of 8-mer
45 | CATGATTA | -0.189 ± 0.0078
46 | CAAAGACG | 0.0798 ± 0.027
47 | CTCATCGA | 0.00436 ± 0.066
48 | AAAGCAGC | -0.0846 ± 0.00013
49 | ACTACCCG | -0.0195 ± 0.094
50 | AGACGGTG | 0.0312 ± 0.0069
51 | CAGCAATG | 0.09882 ± 0.00078
52 | CAAGACAG | -0.0195 ± 0.06
53 | ACGAGTTC | -0.0205 ± 0.056
54 | CTACCTTC | -0.0788 ± 0.011
55 | ACACAGAT | 0.0853 ± 0.0088
56 | CCCAGCGA | -0.014 ± 0.13
57 | GGCCAACA | 0.0485 ± 0.028
58 | CAATCGAC | 0.0568 ± 0.033
59 | ACGAGAGT | -0.025 ± 0.013
60 | GTTATTTA | 0.0194 ± 0.077
61 | AGCTTAGC | -0.0471 ± 0.037
62 | AAAGCTGA | -0.117 ± 0.019
63 | AGGTTTCC | -0.0693 ± 0.076
64 | AGAGGAAC | -0.243 ± 0.061
65 | CTCCTCCA | -0.0939 ± 0.0056
66 | ATGAATAG | -0.127 ± 0.097

Row | Sequence | PBM E-score of 8-mer
67 | AGCGTTAG | 0.183 ± 0.013
68 | CCCTTAGG | 0.00499 ± 0.015
69 | GTGAAAAA | 0.251 ± 0.11
70 | ATGAACAG | -0.0836 ± 0.0021
71 | CAGGCGTC | 0.236 ± 0.056
72 | ACTGACAG | 0.2 ± 0.019
73 | AGGCTGAC | 0.125 ± 0.048
74 | CCATAATC | -0.227 ± 0.0037
75 | ATGCCGTG | -0.0977 ± 0.023
76 | AAGCTAGC | -0.0122 ± 0.052
77 | CAGAGAAG | -0.171 ± 0.056
78 | GGAATAGA | -0.3 ± 0.043
79 | GAAGTTGA | -0.00496 ± 0.067
80 | AAGGGTAT | -0.121 ± 0.02
81 | CGACCGAA | -0.181 ± 0.0099
82 | AGATCTAA | -0.0823 ± 0.041
83 | AGAGTGCG | 0.221 ± 0.059
84 | GCCCGTAA | -0.147 ± 0.041
85 | CGAACTGA | 0.0992 ± 0.0011
86 | CGCCACTA | 0.236 ± 0.011
87 | CGGAGACG | -0.123 ± 0.06
88 | TCCACAGA | -0.0271 ± 0.068

Row | Sequence | PBM E-score of 8-mer
89 | GAACTCCA | 0.0452 ± 0.029
90 | CGCCTAAG | 0.0124 ± 0.024
91 | ATCGTGCG | 0.166 ± 0.0071
92 | CCAAGTCG | 0.122 ± 0.021
93 | GCAGATAA | -0.0315 ± 0.053
94 | AATTATGA | -0.182 ± 0.02
95 | AGCTTACG | -0.159 ± 0.075
96 | CCCACCTC | 0.251 ± 0.043
97 | GAGACAGC | 0.0769 ± 0.072
98 | AATGCTGA | -0.099 ± 0.042
99 | GCCGCTGA | -0.107 ± 0.061
100 | GACCCTCA | -0.114 ± 0.075
101 | GTATAAGA | -0.132 ± 0.052
102 | CGAAGTCC | 0.0736 ± 0.012
103 | ATATACGC | -0.0844 ± 0.021
104 | TGCCCGCA | -0.0405 ± 0.051
105 | ATTCTCTG | -0.29 ± 0.048
106 | GAGCTATA | -0.0433 ± 0.055
107 | AGTTATCA | 0.198 ± 0.009
108 | CGCCTCCG | 0.146 ± 0.02
109 | AGAACTAT | -0.108 ± 0.058
